This is an account of results in US20220267438A1 (Janssen / Centocor, published 2022).

For test [1], the target named is T1, CD3W200, recombinant CD3εγ heterodimer construct (human, UniProt P07766 22-118; P09693 23-103).
T1 construct: also called human CD3 (SPR antigen for BGCB491)
Nature of the test: SPR, CD3 binding, release sample. Background: In SPR one partner is held on a chip, and binding of the other changes the refractive index at the surface.

In test [2] the target is T1, CD3W200, recombinant CD3εγ heterodimer …. Nature of the test: SPR, CD3 binding after oxidation with metal.
Test [3] has as its target T2, BCMW37 (recombinant human BCMA antigen) (human, UniProt Q02223 1-54, limits assumed).
T2 construct: also called BCMA BCMW37 chain; human BCMA (SPR antigen)
T2 sequence (looked up): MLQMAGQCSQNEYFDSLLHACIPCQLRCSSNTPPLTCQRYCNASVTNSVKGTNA
Nature of the test: SPR; antigen BCMW37.

Test [4] has as its target T3, human GPRC5D (G-protein coupled receptor family C group 5 member D) on cells (human, UniProt Q9NZD1 1-345).
T3 construct: Target on H929 or MM.1R BCMA knockout cells, K562 cells expressing human GPRC5D and HEK293 cells of the cell microarray
Nature of the test: flow cytometry, H929 BCMA KO cells, 1 h 37C; Run 3. Here is the method: (§1) First, FACS-based binding for GPRC5D and BCMA binding arms of the trispecific molecule was determined by measuring the effective concentration (EC) range from a dose-response curve using a 4-parameter fit at 37° C. for 1 hr. This was assessed using an H929 suite of cells (WT, GPRC5D-KO, BCMA-KO, and GPRC5D/BCMA KO), and a similar MM.1R suite. Cell based EC₅₀ is approximately 13 nM for WT H929 (FIGS. 2A-2D, Table 7) and 2.4 nM for WT MM.1R (FIGS. 3A-3D, Table 8). A clear avidity affect is observed as EC₅₀ and Bmax are both reduced in GPRC5D-KO and BCMA-KO lines which test monovalent binding of target binding arms (Table 7). Next, cell-based EC₅₀ was determined for the CD3-binding Fab arm using purified Pan T cells from three random donors. […] Next, dose responsive binding was assessed at 4° C. to remove any potential biological effects. As shown in FIGS. 5A-5C, binding is stronger (50-100 nM) at 4° C., compared to 37° C., which may indicate internalization. Additionally, two expression lots of BGCB463 (BGCB463.003 from transient transfection and BGCB463.004 from a stable transfection pool), were directly compared with binding to H929, MM.1R, and Pan T cells and no differences were noted (FIGS. 6A-6C).
A general note: Flow cytometry measures light scatter and fluorescence of single cells or particles in a stream.

The target of test [5] is T4, human BCMA (B cell maturation antigen, TNFRSF17) on cells (human, UniProt Q02223 1-184).
T4 construct: whole, on cells; Target on H929 or MM.1R GPRC5D knockout cells, K562 cells expressing human BCMA, HEK293 cells of the cell microarray, and BCMA-only lymphoma lines; also called CD269; surface BCMA
T4 sequence (looked up): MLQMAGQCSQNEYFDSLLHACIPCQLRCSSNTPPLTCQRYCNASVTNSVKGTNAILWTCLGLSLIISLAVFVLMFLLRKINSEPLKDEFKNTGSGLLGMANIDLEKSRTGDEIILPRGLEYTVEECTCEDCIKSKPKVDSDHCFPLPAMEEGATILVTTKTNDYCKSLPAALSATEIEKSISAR
Nature of the test: flow cytometry, H929 GPRC5D KO cells, 1 h 37C; Run 5. Here is the method: as §1

Test [6] addresses T4, human BCMA (B cell maturation antigen, …). Nature of the test: flow cytometry, K562 cells expressing human BCMA, 1 h 37C. Here is the method:
(§2) FIGS. 9A-E. BGCB463 (circles) or negative control B23B251 (triangles) were all incubated with K562 cells expressing human GPRC5D (FIG. 9A), human BCMA (FIG. 9B), cynomolgus GPRC5D (FIG. 9C) or cynomolgus BCMA (FIG. 9D) for 1 hr at 37° C. at a starting concentration of 2 μM. After secondary detection with AF647-anti-human IgG, the MFI signal was analyzed to generate an EC₅₀ and EC₉₀ (FIG. 9E). Data are representative of two independent experiments.
(§3) The GPRC5D (i.e., GC5B680) and BCMA binding arms were assessed for cross-reactivity to cynomolgus monkey as part of the BGCB463 molecule, which uses the identical binding arms as BGCB491. Cross reactivity to cynomolgus monkeys was profiled for both target-binding scFv arms using FACS-based cell binding at 37° C. for 1 hour with K562 stably expressing human or cynomolgus monkey GPRC5D or BCMA. The cell-based EC₅₀ value for the GC5B680 scFv arm was approximately 30 nM against human GPRC5D-expressing cells and about 10-fold weaker (approximately 400 nM) on cynomolgus monkey GPRC5D-expressing cells.

For test [7] the target is unchanged. Nature of the test: flow cytometry, MM.1R GPRC5D KO cells, 1 h 37C; Run 4.
In test [8] the target is T3, human GPRC5D (G-protein coupled …). Nature of the test: flow cytometry, MM.1R BCMA KO cells, 1 h 37C; average of runs.
Test [9] concerns the target T4, human BCMA (B cell maturation antigen, …). Nature of the test: flow cytometry, H929 GPRC5D KO cells, 1 h 37C; average of runs. Here is the method:
as §1

In test [10] the target is T3, human GPRC5D (G-protein coupled …). Nature of the test: flow cytometry on K562 cells expressing human GPRC5D, 1 hr 37 C, Run 2. The method, then:
as §2, §3

Test [11] addresses T5, cynomolgus GPRC5D on K562 cells (cynomolgus monkey).
T5 construct: whole, on cells; also called cyno GPRC5D
Nature of the test: flow cytometry on K562 cells expressing cynomolgus GPRC5D, 1 hr 37 C, Run 2. The method, then:
as §2, §3

Test [12] concerns the target T4, human BCMA (B cell maturation antigen, …). Nature of the test: flow cytometry on MM.1R GPRC5D KO cells (BCMA arm), 1 hr 37 C, AF647 secondary detection. Here is the method: as §1
The target of test [13] is T3, human GPRC5D (G-protein coupled …). Nature of the test: flow cytometry on K562 cells expressing human GPRC5D, 1 hr 37 C, average of Runs 1 and 2 (EC50 AVE). The method, then:
as §2, §3

T3 sequence (Q9NZD1 whole entry): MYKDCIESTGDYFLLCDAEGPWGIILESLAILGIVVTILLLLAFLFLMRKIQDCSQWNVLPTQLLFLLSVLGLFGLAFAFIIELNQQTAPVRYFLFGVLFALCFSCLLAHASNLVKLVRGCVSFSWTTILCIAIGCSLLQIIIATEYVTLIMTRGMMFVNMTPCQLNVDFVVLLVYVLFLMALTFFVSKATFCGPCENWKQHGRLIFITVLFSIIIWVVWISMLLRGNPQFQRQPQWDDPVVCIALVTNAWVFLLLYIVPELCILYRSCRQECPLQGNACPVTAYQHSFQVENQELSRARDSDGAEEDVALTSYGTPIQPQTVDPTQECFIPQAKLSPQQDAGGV
T1 sequence (P07766 22-118, chain 1 of 2): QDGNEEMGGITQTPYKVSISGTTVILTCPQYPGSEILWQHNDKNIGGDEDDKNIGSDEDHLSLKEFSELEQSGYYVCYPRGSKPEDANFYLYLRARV
T1 sequence (P09693 23-103, chain 2 of 2, further chain): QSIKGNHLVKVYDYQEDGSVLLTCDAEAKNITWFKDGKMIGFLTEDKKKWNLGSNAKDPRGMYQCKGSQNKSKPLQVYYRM

B1: BGCB491 (other)
heavy: QVQLQQSGPRLVRPSQTLSLTCAISGDSVFNNNAAWSWIRQSPSRGLEWLGRTYYRSKWLYDYAVSVKSRITVNPDTSRNQFTLQLNSVTPEDTALYYCARGYSSSFDYWGQGTLVTVSSASTKGPSVFPLAPSSKSTSGGTAALGCLVKDYFPEPVTVSWNSGALTSGVHTFPAVLQSSGLYSLSSVVTVPSSSLGTQTYICNVNHKPSNTKVDKKVEPKSCDKTHTCPPCPAPEAAGGPSVFLFPPKPKDTLMISRTPEVTCVVVSVSHEDPEVKFNWYVDGVEVHNAKTKPREEQYNSTYRVVSVLTVLHQDWLNGKEYKCKVSNKALPAPIEKTISKAKGQPREPQVYTLPPSREEMTKNQVSLSCAVKGFYPSDIAVEWESNGQPENNYKTTPPVLDSDGSFFLVSKLTVDKSRWQQGNVFSCSVMHEALHNRFTQKSLSLSPGKGGGGSGGGGSGGGGSGGGGS[letters of about 100 residues not shown]QFPHTFGQGTKLEIKGGSEGKSSGSGSESKSTGGSQVTLKESGPVLVKPTETLTLTCTVSGFSLTNIRMSVSWIRQPPGKALEWLAHIFSNDEKSYSTSLKSRLTISRDTSKSQVVLTLTNVDPVDTATYYCARMRLPYGMDVWGQGTTVTVSS
light: QSALTQPASVSGSPGQSITISCTGTSSNIGTYKFVSWYQQHPDKAPKVLLYEVSKRPSGVSSRFSGSKSGNTASLTISGLQAEDQADYHCVSYAGSGTLLFGGGTKLTVLGQPKAAPSVTLFPPSSEELQANKATLVCLISDFYPGAVTVAWKADSSPVKAGVETTTPSKQSNNKYAASSYLSLTPEQWKSHRSYSCQVTHEGSTVEKTVAPTECS
chain: EIVLTQSPGTLSLSPGERATLSCRASQSISSSFLTWYQQKPGQAPRLLIYGASSRATGIPDRFSGGGSGTDFTLTISRLEPEDFAVYYCQHYGSSPMYTFGQGTKLEIKGGSEGKSSGSGSESKSTGGS[letters of about 100 residues not shown]DEGYSSGHYYGMDVWGQGTTVTVSSEPKSSDKTHTCPPCPAPEAAGGPSVFLFPPKPKDTLMISRTPEVTCVVVSVSHEDPEVKFNWYVDGVEVHNAKTKPREEQYNSTYRVVSVLTVLHQDWLNGKEYKCKVSNKALPAPIEKTISKAKGQPREPQVYTLPPSREEMTKNQVSLWCLVKGFYPSDIAVEWESNGQPENNYKTTPPVLDSDGSFFLYSKLTVDKSRWQQGNVFSCSVMHEALHNHYTQKSLSLSPGK
notes: Trispecific IgG1 antibody (L234A, L235A, D265S); Heavy chain 1 = anti-CD3 (CD3B376) Fab heavy chain, hole and RF mutations, with C-terminal anti-GPRC5D scFv (GC5B680); Heavy chain 2 = anti-BCMA scFv (BCMB519) - Fc knob; also called JNJ-79635322; BCMA×GPRC5D×CD3 trispecific mAb
B1: the figures for the Kd in [1] and in test [2] were 25.1 nM and 23.3 nM, respectively.

B2: BGCB463 (other)
heavy: QVQLQQSGPRLVRPSQTLSLTCAISGDSVFNNNAAWSWIRQSPSRGLEWLGRTYYRSKWLYDYAVSVKSRITVNPDTSRNQFTLQLNSVTPEDTALYYCARGYSSSFDYWGQGTLVTVSSASTKGPSVFPLAPSSKSTSGGTAALGCLVKDYFPEPVTVSWNSGALTSGVHTFPAVLQSSGLYSLSSVVTVPSSSLGTQTYICNVNHKPSNTKVDKKVEPKSCDKTHTCPPCPAPEAAGGPSVFLFPPKPKDTLMISRTPEVTCVVVSVSHEDPEVKFNWYVDGVEVHNAKTKPREEQYNSTYRVVSVLTVLHQDWLNGKEYKCKVSNKALPAPIEKTISKAKGQPREPQVYTLPPSREEMTKNQVSLSCAVKGFYPSDIAVEWESNGQPENNYKTTPPVLDSDGSFFLVSKLTVDKSRWQQGNVFSCSVMHEALHNRFTQKSLSLSPGK
light: QSALTQPASVSGSPGQSITISCTGTSSNIGTYKFVSWYQQHPDKAPKVLLYEVSKRPSGVSSRFSGSKSGNTASLTISGLQAEDQADYHCVSYAGSGTLLFGGGTKLTVLGQPKAAPSVTLFPPSSEELQANKATLVCLISDFYPGAVTVAWKADSSPVKAGVETTTPSKQSNNKYAASSYLSLTPEQWKSHRSYSCQVTHEGSTVEKTVAPTECS
chain: [letters of about 100 residues not shown]QFPHTFGQGTKLEIKGGSEGKSSGSGSESKSTGGSQVTLKESGPVLVKPTETLTLTCTVSGFSLTNIRMSVSWIRQPPGKALEWLAHIFSNDEKSYSTSLKSRLTISRDTSKSQVVLTLTNVDPVDTATYYCARMRLPYGMDVWGQGTTVTVSSEPKSSDKTHTCPPCPAPEAAGGPSVFLFPPKPKDTLMISRTPEVTCVVVSVSHEDPEVKFNWYVDGVEVHNAKTKPREEQYNSTYRVVSVLTVLHQDWLNGKEYKCKVSNKALPAPIEKTISKAKGQPREPQVYTLPPSREEMTKNQVSLWCLVKGFYPSDIAVEWESNGQPENNYKTTPPVLDSDGSFFLYSKLTVDKSRWQQGNVFSCSVMHEALHNHYTQKSLSLSPGKGGSEGKSSGSGSESKSTGGSEIVLTQSPGTLSLSPGERATLSCRASQSISSSFLTWYQQKPGQAPRLLIYGASSRATGIPDRFSGGGSGTDFTLTISRLEPEDFAVYYCQHYGSSPMYTFGQGTKLEIKGGSEGKSSGSGSESKSTGGS[letters of about 100 residues not shown]DEGYSSGHYYGMDVWGQGTTVTVSS
notes: Trispecific IgG1 antibody (L234A, L235A, D265S); Heavy chain 1 = anti-CD3 (CD3B376) Fab heavy chain with hole and RF mutations; also called BGCB463.003; BGCB463.004
For B2, the Kd – broadly, the free concentration of one partner at which half of the binding sites on the other are occupied at equilibrium, for simple one-to-one binding – in [3] was 0.84 nM. The 50% effective concentration (EC50) (usually the concentration that produces a half-maximal response) in [4] was 65.2 nM; in [5], 457 nM; in [6], approximately 145 nM; in test [7], 490 nM; in test [8] it was 19.7 nM; in [9], 212 nM. Further, the EC50 in test [10] was 49.7 nM; in [11], 310 nM; in [13], 31.1 nM. In addition, the EC50 (read off the curve) (commonly the concentration that produces a half-maximal response) in test [12] is approximately 60 nM.
